Some of the results follow. No stated cut-off is given here; in the data, active = 3.2 or more and inactive = the rest. Most of these values are background signal.
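Further: displayed peptides selected on beads carrying the immobilized SH2 domain, with library peptides lacking any tyrosine serving as negative controls.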

One assay has as its target SHP2 C-SH2 domain E139D. Briefly: enrichment score (SH2-bound / input frequency) (ratio); bacterial display of known human phosphotyrosine sites (pTyr-Var adds point mutants) read by sequencing; higher = stronger binding; tyrosines were phosphorylated by kinases first. Conditions: peptide library: pTyr-Var.
Consider NTYEKYWLFYQ [GATM_Y103_P105L], for which the enrichment score is inactive: 1.37.

On to DVFRQYASLRG [GANAB_Y379_T383R], for which the enrichment score is inactive: 1.61.

As to PVFEVYPLLNC [GATA1_Y78_Q76E], the enrichment score was inactive: 0.898.

For the molecule MKKKTYAMGGG [GAN_Y424_I423T], the enrichment score was inactive: 0.794.

In the case of FASAEYQEALS [GALNS_Y461], the enrichment score is inactive: 0.664.

In the case of DGTGHYLGNAC [GATA5_Y208_C210G], the enrichment score is inactive: 0.639.

As for PADCRYFAFPQ [GAMT_Y222_YF], the enrichment score was inactive: 1.16.

Take ADCRFYTFPQM [GAMT_Y223_A224T_YF]: the enrichment score was inactive: 0.79.

Regarding EGTGHYLCNAC [GATA5_Y208_D203E], the enrichment score is inactive: 0.806.

With VKANTYEKFWL [GATM_Y100_P105L_YF], the enrichment score is inactive: 0.849.

Take FIGRIYLYLTK [GARS1_Y414]: the enrichment score was inactive: 1.32.

In the case of NARGLYFKLHN [GATA2_Y376_C373R_YF], the enrichment score is inactive: 1.04.

Consider VKANTYENFWP [GATM_Y100_K102N_YF], for which the enrichment score was active: 3.3.

For the molecule LFSLGYHQSRW [GANAB_Y396], the enrichment score is inactive: 1.5.

On to VKANTYEKFWP [GATM_Y100_YF], for which the enrichment score was inactive: 1.14.

In the case of RFMVGYEMLAQ [GALT_Y339_K334R], the enrichment score is inactive: 1.34.

For the molecule VKANTYEKYWP [GATM_Y100], the enrichment score was inactive: 0.897.

Take KPSLKYVTFGN [GALNTL5_Y404_G401S_YF]: the enrichment score is inactive: 0.797.

The target in the next assay is SHP2 C-SH2 domain wild-type. The assay is described as above. Conditions: peptide library: pTyr-Var.
Consider NTYEKYWLFYQ [GATM_Y103_P105L], for which the enrichment score was inactive: 1.41.

Turning to DVFRQYASLRG [GANAB_Y379_T383R], the enrichment score was active: 4.07.

For PVFEVYPLLNC [GATA1_Y78_Q76E], the enrichment score was inactive: 1.09.

On to MKKKTYAMGGG [GAN_Y424_I423T], for which the enrichment score was inactive: 0.627.

With FASAEYQEALS [GALNS_Y461], the enrichment score was inactive: 0.516.

With DGTGHYLGNAC [GATA5_Y208_C210G], the enrichment score is inactive: 0.752.

Consider PADCRYFAFPQ [GAMT_Y222_YF], for which the enrichment score was inactive: 1.21.

For the molecule ADCRFYTFPQM [GAMT_Y223_A224T_YF], the enrichment score was inactive: 1.44.

EGTGHYLCNAC [GATA5_Y208_D203E]: the enrichment score was inactive: 0.687.

VKANTYEKFWL [GATM_Y100_P105L_YF]: the enrichment score is inactive: 1.16.

Turning to FIGRIYLYLTK [GARS1_Y414], the enrichment score is inactive: 1.33.

On to NARGLYFKLHN [GATA2_Y376_C373R_YF], for which the enrichment score was inactive: 1.21.

Turning to VKANTYENFWP [GATM_Y100_K102N_YF], the enrichment score was active: 3.79.

As to LFSLGYHQSRW [GANAB_Y396], the enrichment score was inactive: 1.9.

Take VKANTYEKFWP [GATM_Y100_YF]: the enrichment score is inactive: 1.13.

Consider RFMVGYEMLAQ [GALT_Y339_K334R], for which the enrichment score was inactive: 1.13.

In the case of VKANTYEKYWP [GATM_Y100], the enrichment score is inactive: 0.83.

With KPSLKYVTFGN [GALNTL5_Y404_G401S_YF], the enrichment score is inactive: 0.594.

In a further assay the target is SHP2 N-SH2 domain L43F. The assay is described as above. Conditions: peptide library: pTyr-Var.
NTYEKYWLFYQ [GATM_Y103_P105L]: the enrichment score is inactive: 1.38.

For the molecule DVFRQYASLRG [GANAB_Y379_T383R], the enrichment score is inactive: 0.426.

As for PVFEVYPLLNC [GATA1_Y78_Q76E], the enrichment score was inactive: 0.91.

As to MKKKTYAMGGG [GAN_Y424_I423T], the enrichment score was inactive: 0.888.

In the case of FASAEYQEALS [GALNS_Y461], the enrichment score was inactive: 0.755.

In the case of DGTGHYLGNAC [GATA5_Y208_C210G], the enrichment score was inactive: 0.624.

As for PADCRYFAFPQ [GAMT_Y222_YF], the enrichment score is inactive: 0.993.

Take ADCRFYTFPQM [GAMT_Y223_A224T_YF]: the enrichment score is inactive: 1.48.

With EGTGHYLCNAC [GATA5_Y208_D203E], the enrichment score was inactive: 0.668.

As to VKANTYEKFWL [GATM_Y100_P105L_YF], the enrichment score was inactive: 0.797.

Regarding FIGRIYLYLTK [GARS1_Y414], the enrichment score is inactive: 1.02.

As to NARGLYFKLHN [GATA2_Y376_C373R_YF], the enrichment score was inactive: 0.869.

Regarding VKANTYENFWP [GATM_Y100_K102N_YF], the enrichment score was inactive: 3.14.

Take LFSLGYHQSRW [GANAB_Y396]: the enrichment score was inactive: 2.24.

Consider VKANTYEKFWP [GATM_Y100_YF], for which the enrichment score was inactive: 0.833.

In the case of RFMVGYEMLAQ [GALT_Y339_K334R], the enrichment score was inactive: 1.53.

As for VKANTYEKYWP [GATM_Y100], the enrichment score was inactive: 0.816.

In the case of KPSLKYVTFGN [GALNTL5_Y404_G401S_YF], the enrichment score was inactive: 1.25.

For a further assay, the target named is SHP2 N-SH2 domain T42A. The description is as above. Conditions: peptide library: pTyr-Var.
Regarding NTYEKYWLFYQ [GATM_Y103_P105L], the enrichment score was inactive: 0.994.

As for DVFRQYASLRG [GANAB_Y379_T383R], the enrichment score is inactive: 0.971.

For PVFEVYPLLNC [GATA1_Y78_Q76E], the enrichment score was inactive: 0.806.

For MKKKTYAMGGG [GAN_Y424_I423T], the enrichment score is inactive: 0.846.

Consider FASAEYQEALS [GALNS_Y461], for which the enrichment score is inactive: 0.604.

Turning to DGTGHYLGNAC [GATA5_Y208_C210G], the enrichment score was inactive: 0.576.

For the molecule PADCRYFAFPQ [GAMT_Y222_YF], the enrichment score is inactive: 0.993.

On to ADCRFYTFPQM [GAMT_Y223_A224T_YF], for which the enrichment score is inactive: 0.877.

In the case of EGTGHYLCNAC [GATA5_Y208_D203E], the enrichment score is inactive: 0.589.

In the case of VKANTYEKFWL [GATM_Y100_P105L_YF], the enrichment score is inactive: 0.885.

For FIGRIYLYLTK [GARS1_Y414], the enrichment score is inactive: 1.05.

Turning to NARGLYFKLHN [GATA2_Y376_C373R_YF], the enrichment score was inactive: 0.857.

Regarding VKANTYENFWP [GATM_Y100_K102N_YF], the enrichment score is active: 4.56.

For the molecule LFSLGYHQSRW [GANAB_Y396], the enrichment score is inactive: 1.57.

For VKANTYEKFWP [GATM_Y100_YF], the enrichment score is inactive: 1.02.

Take RFMVGYEMLAQ [GALT_Y339_K334R]: the enrichment score was inactive: 1.4.

Regarding VKANTYEKYWP [GATM_Y100], the enrichment score is inactive: 0.898.

For KPSLKYVTFGN [GALNTL5_Y404_G401S_YF], the enrichment score was inactive: 1.41.

In another assay the target is SHP2 N-SH2 domain T52S. The description is as above. As to conditions: peptide library: pTyr-Var.
For NTYEKYWLFYQ [GATM_Y103_P105L], the enrichment score is inactive: 1.07.

Take DVFRQYASLRG [GANAB_Y379_T383R]: the enrichment score is inactive: 0.551.

For PVFEVYPLLNC [GATA1_Y78_Q76E], the enrichment score is inactive: 0.756.

Consider MKKKTYAMGGG [GAN_Y424_I423T], for which the enrichment score is inactive: 1.11.

With FASAEYQEALS [GALNS_Y461], the enrichment score was inactive: 0.687.

In the case of DGTGHYLGNAC [GATA5_Y208_C210G], the enrichment score is inactive: 0.596.

For the molecule PADCRYFAFPQ [GAMT_Y222_YF], the enrichment score was inactive: 0.931.

Regarding ADCRFYTFPQM [GAMT_Y223_A224T_YF], the enrichment score was inactive: 0.936.

For EGTGHYLCNAC [GATA5_Y208_D203E], the enrichment score is inactive: 0.633.

Consider VKANTYEKFWL [GATM_Y100_P105L_YF], for which the enrichment score was inactive: 0.682.

On to FIGRIYLYLTK [GARS1_Y414], for which the enrichment score is inactive: 1.28.

On to NARGLYFKLHN [GATA2_Y376_C373R_YF], for which the enrichment score was inactive: 1.12.

With VKANTYENFWP [GATM_Y100_K102N_YF], the enrichment score was active: 3.88.

In the case of LFSLGYHQSRW [GANAB_Y396], the enrichment score is inactive: 1.74.

Take VKANTYEKFWP [GATM_Y100_YF]: the enrichment score is inactive: 0.819.

Consider RFMVGYEMLAQ [GALT_Y339_K334R], for which the enrichment score is inactive: 1.43.

For VKANTYEKYWP [GATM_Y100], the enrichment score was inactive: 0.762.

For the molecule KPSLKYVTFGN [GALNTL5_Y404_G401S_YF], the enrichment score is inactive: 1.34.

The target in a further assay is SHP2 N-SH2 domain wild-type. Described as above. Conditions: peptide library: pTyr-Var.
Regarding NTYEKYWLFYQ [GATM_Y103_P105L], the enrichment score is inactive: 1.58.

With DVFRQYASLRG [GANAB_Y379_T383R], the enrichment score is inactive: 0.591.

For the molecule PVFEVYPLLNC [GATA1_Y78_Q76E], the enrichment score is inactive: 0.954.

For MKKKTYAMGGG [GAN_Y424_I423T], the enrichment score is inactive: 0.6.

For the molecule FASAEYQEALS [GALNS_Y461], the enrichment score was inactive: 0.584.

Turning to DGTGHYLGNAC [GATA5_Y208_C210G], the enrichment score was inactive: 0.828.

Turning to PADCRYFAFPQ [GAMT_Y222_YF], the enrichment score is inactive: 1.11.

For ADCRFYTFPQM [GAMT_Y223_A224T_YF], the enrichment score was inactive: 1.36.

Turning to EGTGHYLCNAC [GATA5_Y208_D203E], the enrichment score is inactive: 0.747.

Regarding VKANTYEKFWL [GATM_Y100_P105L_YF], the enrichment score was inactive: 0.982.

Regarding FIGRIYLYLTK [GARS1_Y414], the enrichment score was inactive: 1.1.

As for NARGLYFKLHN [GATA2_Y376_C373R_YF], the enrichment score was inactive: 1.17.

Take VKANTYENFWP [GATM_Y100_K102N_YF]: the enrichment score was active: 3.52.

As to LFSLGYHQSRW [GANAB_Y396], the enrichment score is inactive: 1.73.

Consider VKANTYEKFWP [GATM_Y100_YF], for which the enrichment score was inactive: 1.38.

In the case of RFMVGYEMLAQ [GALT_Y339_K334R], the enrichment score was inactive: 1.27.

Turning to VKANTYEKYWP [GATM_Y100], the enrichment score was inactive: 0.787.

On to KPSLKYVTFGN [GALNTL5_Y404_G401S_YF], for which the enrichment score is inactive: 0.772.

These data come from the supplement of paper PMC10369915.
